Reference: PubChem BioAssay AID504832 (National Center for Advancing Translational Sciences (NCATS), 2011)
About 18,000 (5.8%) of roughly 310,000 compounds were called active. Inconclusive results, whose numbers are uncertain, are shown with a selection of clear calls. Calls come from the whole dose curve; as a rule, active = well fitted inhibition curve with a large enough effect; inconclusive = small, poorly fitted or top-dose-only effect, or another doubt; inactive = no such curve, though single readings can be large or run the other way. Potencies of inconclusive entries are left out as doubtful fits.
% is set by controls: 0 for no effect and ±100 for the full control effect; potency is the fitted concentration of half-maximal effect; tags give direction and shape of the fitted curve.

Assay: Primary qHTS for delayed death inhibitors of the malarial parasite plastid, 48 hour incubation
Details: P. falciparum luciferase growth in erythrocytes; series mostly up to 28.7 µM; activity change, negative = inhibition: at the top concentration
Procedure, shortened: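 Compounds are pin-transferred into medium, infected erythrocytes (2% hematocrit, 0.1% parasitemia final) are added, and plates sit one parasite generation at 37 C in 5% CO2. Detection reagent is then added and luminescence measured.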
In the case of `Cc1ccc(Cl)cc1N1CCN(CC(O)COCc2ccco2)CC1` (centres undefined), the “activity change, negative = inhibition” value was inactive: 10.4%.
With `CCN(CC)C(=O)Cn1nnc(-c2ccc(S(C)(=O)=O)cc2)n1` the “activity change, negative = inhibition” value was inactive: 12.3%.
For `N#Cc1cc2c(nc1SCc1ccccc1)CCCC2=O`, the Potency was inconclusive [inhibitor, single point].
For `CCOC(=O)c1cc(-c2ccccc2C)n(CC2CC(c3cccc([N+](=O)[O-])c3)=NO2)n1` (centres undefined), the Potency was inconclusive [inhibitor, partial curve, poor fit].
For `CCN(CC(=O)NCc1ccc(F)cc1)C(=O)CCNS(=O)(=O)c1cccc(C)c1`, the Potency was inconclusive [inhibitor, single point].
In the case of `CSc1ccc(C(=O)C(C)(C)N2CCOCC2)cc1`, the Potency was inconclusive [inhibitor, single point].
With `COc1ccc(N(CC(=O)NCCSCc2cccc(Cl)c2)S(C)(=O)=O)cc1Cl` the “activity change, negative = inhibition” value was inactive: -20.5%.
In the case of `O=C1CC(c2cccs2)Sc2nc3ccccc3n21` (centres undefined), the “activity change, negative = inhibition” value was inactive: 185%.
For `Cc1cccc(NC(=O)C2CCN(S(=O)(=O)c3ccc(Cl)cc3)CC2)n1`, the Potency was inconclusive [inhibitor, single point].
For `N#Cc1ccc(COc2cccnc2[N+](=O)[O-])cc1`, the Potency was inconclusive [inhibitor, single point].
With `O=C(NCCO)C(O)C(O)C(=O)NCCO` (centres undefined) the “activity change, negative = inhibition” value was inactive: -0.758%.
For `Cc1nn(-c2ccc(C(=O)NCC(c3ccco3)N3CCCC3)cc2)c(C)c1Cl` (centres undefined), the Potency was inconclusive [inhibitor, full curve].
With `CC1=NN(c2ccccc2)C(=O)/C1=C/c1cc(C)n(C2CC2)c1C` the Potency was inconclusive [inhibitor, partial curve].
With `CCOC(=O)N1CC=C2C(C#N)=C(N)C(C#N)(C#N)[C@H](c3ccc(OC(C)C)c(OCC)c3)[C@H]2C1` the Potency was active: 5.22 µM.
In the case of `O=C(O)CC12CC3CC(C1)CC(n1ncc(NCc4ccc(F)cc4)c(Cl)c1=O)(C3)C2`, the Potency was inconclusive [inhibitor, partial curve, poor fit].
With `COc1ccc(Br)c(OC)c1C(=O)NC(=O)Nc1nc(C)cc(C)n1` the “activity change, negative = inhibition” value was inactive: -6.63%.
With `Cc1cc(O)c(C(C)C)cc1NC(=O)c1ccc(Cl)cc1` the Potency was inconclusive [inhibitor, full curve, poor fit].
For `O=C(Nc1nc(-c2cccs2)cs1)c1ccc(S(=O)(=O)N2CCCC2)cc1`, the Potency was inconclusive [inhibitor, partial curve].
For `CCOc1ccccc1NC(=O)CSc1nc2ccccc2nc1N1CCOCC1`, the Potency was inconclusive [inhibitor, partial curve, poor fit].
With `O=C(CSc1nc2ccccc2s1)N1c2ccccc2Sc2ccc(Cl)cc21` the Potency was inconclusive [inhibitor, partial curve].
For `COc1ccc(C2C(C(=O)N3CCN(C)CC3)c3ccccc3C(=O)N2C2CCCCC2)cc1` (centres undefined), the Potency was inconclusive [inhibitor, single point].
For `CN(C)C1=NC[C@H](Cc2ccccc2)N1CCc1cccc(F)c1`, the Potency was inconclusive [inhibitor, single point].
For `CS(=O)c1nc(-c2ccc(Br)cc2)cc(-c2ccccc2)c1C#N` (centres undefined), the Potency was inconclusive [inhibitor, single point].
In the case of `O=C(c1ccc2ccccc2n1)N1CCN(c2ccccc2O)CC1`, the Potency was inconclusive [inhibitor, single point].
For `CC(C)C(=O)Nc1cc2c(cc1C(=O)c1ccccc1)OCCO2`, the Potency was inconclusive [inhibitor, single point].
In the case of `O=[N+]([O-])c1ccc(Nc2cccc(F)c2)nc1`, the “activity change, negative = inhibition” value was inactive: 9.18%.
In the case of `O=C(c1ccc(S(=O)(=O)Nc2ccc(F)cc2)cc1)N1CCN(c2ccccn2)CC1`, the Potency was inconclusive [inhibitor, partial curve].
With `COc1cccc(O)c1CN1CCCC(C(=O)c2ccccc2SC)C1` (centres undefined) the Potency was inconclusive [inhibitor, partial curve, poor fit].
For `COc1ccc(CCc2nnc(N)s2)cc1OC`, the Potency was inconclusive [inhibitor, full curve, poor fit].
For `Cc1ccc(N2C(=O)CC(C)(C)CC2=O)cc1Cl`, the Potency was inconclusive [inhibitor, partial curve, poor fit].
With `COc1cc(C)c(C)cc1S(=O)(=O)N1CCCc2ccccc21` the Potency was inconclusive [inhibitor, partial curve, poor fit].
In the case of `Cc1ccc(SCCC(=O)N(C)C)cc1`, the “activity change, negative = inhibition” value was inactive: 57.3%.
In the case of `COCCn1c(=O)[nH]c(=O)c2cc(C(=O)c3cc(OC)ccc3O)cnc21`, the Potency was inconclusive [inhibitor, partial curve, poor fit].
For `CN(CC(=O)Nc1ccc(F)cc1)C(=O)c1ccccc1Sc1ccccc1C#N`, the “activity change, negative = inhibition” value was inactive: -7.78%.
With `COc1ccccc1N1CCN(C(=O)CC(NC(=O)c2ccccc2Cl)c2ccccc2)CC1` (centres undefined) the Potency was inconclusive [inhibitor, single point].
In the case of `CCOc1ccc(CCNC(=O)COC(=O)c2c(OC)cccc2OC)cc1OCC`, the Potency was inconclusive [inhibitor, single point].
For `OCCC1CN(Cc2cccn2-c2nccs2)CCN1CCc1ccccc1` (centres undefined), the Potency was inconclusive [inhibitor, single point].
In the case of `O=C(CSc1ccccn1)Nc1ccccc1F`, the “activity change, negative = inhibition” value was inactive: 53%.
With `COc1ccc2[nH]cc(S(=O)(=O)c3ccc(C(C)C)cc3)c(=O)c2c1` the “activity change, negative = inhibition” value was inactive: -9.28%.
In the case of `Cc1ccc(S(=O)(=O)N2CCN(C(=O)Cc3sc(C)nc3-c3ccc(F)cc3)CC2)c(C)c1`, the Potency was inconclusive [inhibitor, partial curve, poor fit].
For `CCc1ccc(NC(=O)CSc2nc3nc(C)cc(C)n3n2)cc1`, the “activity change, negative = inhibition” value was inactive: 7.78%.
For `CCC(=O)Nc1ccc(N2CCN(Cc3ccccc3)CC2)cc1`, the Potency was inconclusive [inhibitor, single point].
With `CCCN(CCC)C(=O)c1ccc2c(c1)S(=O)(=O)c1ccccc1C2=O` the Potency was inconclusive [inhibitor, partial curve, poor fit].
In the case of `O=C1Nc2ccccc2/C1=N/N=C/c1ccc(-c2ccc([N+](=O)[O-])cc2)o1`, the Potency was inconclusive [inhibitor, full curve, poor fit].
In the case of `O=C(CN1C(=O)NC2(CCCC2)C1=O)OCc1ccc(Br)cc1`, the Potency was inconclusive [inhibitor, single point].
For `CCn1c(=O)c(C(=O)CN2CCN(S(=O)(=O)c3cc(C)ccc3C)CC2)c(N)n(Cc2ccccc2)c1=O`, the Potency was inconclusive [inhibitor, partial curve].
With `CC(=O)Nc1cccc(NC(=O)c2cccc(S(=O)(=O)N3CCN(Cc4ccccc4)CC3)c2)c1` the Potency was active: 10.4 µM.
For `CN(C)CCCn1c(SCC(=O)Nc2nc(-c3cccc(Br)c3)cs2)nc2ccccc2c1=O`, the Potency was inconclusive [inhibitor, single point].
In the case of `CCOC(=O)Cn1nnnc1CN(Cc1ccc(OC)cc1)Cc1cc2cc(C)ccc2[nH]c1=O`, the Potency was inconclusive [inhibitor, single point].
In the case of `O=C1OC(/C=C/c2ccc(Cl)cc2)=NC/1=C/c1ccco1`, the “activity change, negative = inhibition” value was inactive: 10.9%.
With `c1ccc(CCC2=NCCn3cccc32)cc1` the Potency was inconclusive [inhibitor, single point].
With `O=C(CSc1nc(O)cc(=O)n1-c1ccccc1)c1ccc(Br)cc1` the activity change, negative = inhibition was inactive: 42.4% [at 1.15 µM].
In the case of `CCOC(=O)c1c(C)[nH]c2c1-c1ccccc1C(=O)C2=O`, the Potency was active: 1.47 µM.
For `Cc1c(C(=O)N2CCc3ccccc3C2)oc2ccc(S(=O)(=O)N3CC(C)CC(C)C3)cc12` (centres undefined), the Potency was inconclusive [inhibitor, partial curve].
In the case of `CCCCN(CCCNC(=O)CN1C(=O)COc2ccc(S(=O)(=O)N3CCC(C)CC3)cc21)Cc1ccccc1`, the Potency was inconclusive [inhibitor, single point].
For `Cc1nc2c(C(=O)N3CCCCC3)cnn2c(C)c1Cc1ccccc1F`, the “activity change, negative = inhibition” value was inactive: 43.8%.
In the case of `CC(C)OC(=O)CSc1nnc(-c2ccc(Cl)cc2Cl)o1`, the “activity change, negative = inhibition” value was inactive: 25.3%.
With `CC(C)c1nc2sc3ccccc3c(=O)c2c(=O)n1Cc1ccccc1` the Potency was inconclusive [inhibitor, single point].
For `Cc1c(OC(C)C(=O)NCC(O)c2ccccc2)ccc2c3c(c(=O)oc12)CCCC3` (centres undefined), the Potency was active: 8.28 µM.
In the case of `CC(=O)NCCOC(=O)Nc1sc(=S)n(C)c1C`, the “activity change, negative = inhibition” value was inactive: 9.63%.
For `CCN1CCN(c2cc(C)c3cc(NC(=O)c4cccc(OC)c4)ccc3n2)CC1`, the Potency was inconclusive [inhibitor, full curve].
With `COc1ccc(N2CCN(S(=O)(=O)c3ccc4c(c3)NC(=O)C(C)C(=O)N4)CC2)cc1` (centres undefined) the “activity change, negative = inhibition” value was inactive: 6.59%.
For `Clc1nc2ccccc2cc1/C=N/Nc1nc2ccccc2[nH]1`, the Potency was active: 0.522 µM.
For `CCCCN(CCCC)CC(O)COc1ccccc1Br` (centres undefined), the Potency was active: 4.15 µM.
In the case of `O=C(CCc1ccccc1)c1ccc2c(c1)OCCCO2`, the Potency was inconclusive [inhibitor, single point].
In the case of `COc1ccc(Cc2noc(CN3CCCN(C4Cc5ccccc5C4)CC3)n2)cc1OC`, the Potency was inconclusive [inhibitor, partial curve, poor fit].
For `CCN(CC)CCNC(=O)c1ccc(NC(=O)C2CCN(S(=O)(=O)c3ccc4c(c3)OCCO4)CC2)cc1`, the Potency was inconclusive [inhibitor, single point].
With `Clc1ccccc1Sc1ccc(-c2ccccn2)s1` the “activity change, negative = inhibition” value was inactive: 6.8%.
For `O=C(NCc1cccnc1)C1CCC(CNS(=O)(=O)c2cccc3nsnc23)CC1` (centres undefined), the “activity change, negative = inhibition” value was inactive: -15.6%.
